Our source for the self-cleavage values is the RNAGym collection of RNA variant scans (doi:10.7554/elife.90254).

The chains are these.
B1: LINE1-full (parent)
chain: UACGUAGGUGGUUUUCCCCUGAUAGUGCUAAGGGGGCCUGGAAGUUUGGACUGGGCAGAGCUCAACACAGCGUGGCAAAGUGGCUGUGGCUAGACUGCCUCUCUGGAUUCCUCGUCACUCAGCAGGGCAUCUCUGAGAGAAAUGCC

The source gives no read counts; variants with many changes may rest on few reads.

Variants of B1 are the subject of this series. Description: self-cleavage, relative activity (ratio to wild type); higher = more cleavage; in vitro, sequencing; the parent is a self-cleaving ribozyme.
As to UACGUAGGUGGUCUUCCCCUGAUAGUGCUAAGGGGGCCUGGAGGUUUGGACUGGGCAGAGCUCAACACAGCGUGGCAAAGUGGCUGUGGCUAGACUGCCUCUCUGGAUUCCCCGUCACUAAGCAGGGCAUCUCUGAGAAAAAUGCC, the self-cleavage was 0.82.

Turning to UACGUAGGUGGUCUUCCCCUGAUAGUGCUAAGGGGGCCUGGAAGUUUGGACUGGGCGGAGCUCAACACAGCGUAGCAAAGUGGCUGUGGCUAGACUGCCUCUCUGGAUUCCUCGUCACUCAGCAGGGCAUCUCUGAGAGAAAUGCC, the self-cleavage turned out to be 0.08.

As to UACGUAGGUGGUCUUCCCCUGAUAGUGCUAAGGGGGCCUGGAGGUUCGGACUGGGCAGAGCUCAACACAGCGUGGCAAAGUGGCUGUGGCUAGACUGCCUCUCUGGAUUCCUCGUCACUCAGCAGGGCAUCUCUGGGAGAAAUGCC, the self-cleavage is 0.33.

As for UACGUAGGUGGUCUUCCCCUGAUAGUGCUAAGGGGGCCUGGAAGUUUGGACUGGGCGGAGCUCAACACAGCGUGGCAAAGUGGCUGUGGCUAGACUGCCUCCCUGGAUUCCUCGUCACUCAGCAGGGCAUCUCUGAGAGAAAUGCC, the self-cleavage is 0.16.

As for UACGUAGGUGGUCUUCCCCUGAUAGUGCUAAGGGGGCCUGGUAGUUUGGACUGGGCAGAGCUCAACACAGCGUGGCAAAGUGGCUGUGGCUAGACUGCCUCUCUGGAUUCCUCGUCACUCAGCAGGGCAUCCCUGAGAGAAAUGCC, the self-cleavage came to 1.33.

On to UACGUAGGUGGUCUUCCCCUGAUAGUGCUAAGGGGGCCUGGAGGUUUGGACUGGGCAGAGCUCAACACAGCGUGGCAAAGUGGCUGUGGCUAGACUGCCUCUCUGGAUUCCUCGUCACUCAGCAGGGCAUCUCUGAGAGAAGUGCC, for which the self-cleavage worked out at 1.42.

Turning to UACGUAGGUGGUCUUCCCCUGAUAGUGCUAAGGGGGCCUGGUAGUUUGGACUGGGCAGAGCUCAACACAGCGUGGCAAAGUGGCUGUGGCUAGACUGCCUCUCUGGAUUCCUCGUCACUCAGCAGGGCACCUCUGAGAGAAAUGCC, the self-cleavage is 0.

UACGUAGGUGGUCUUCCCCUGAUAGUGCUAAGGGGGCCUGGAAGUUUGGGCUGGGCAGAGCUCAACACAGCGUGGCAAAGUGGCUGUGGCUAGACUGCCUCUCUGGAUUCCUCGUCACUCAGCAGGACAUCUCUGAGAGAAAUGCC: the self-cleavage worked out at 0.

For UACGUAGGUGGUCUUCCCCUGAUAGUGCUAAGGGGGCCUGGAAGUUUGGUCUGGGCAGAGCUCAACACUGCGAGGCAAAGUGGCUGUGGCUAGACUGCCUCUCUGGAUUCCUCGUCACUCAGCAGGGCAUCUCUGGGGGAAACGCC, the self-cleavage was 0.02.

As for UACGUAGGUGGUCUUCCCCUGAUAGUGCUAAGGGGGCCUGGGAGUUUGGACUGGGCAGAGCUCAACACUGCGUGGCAAAGUGGCUGUGGCUAGACUGCCUCUCUGGAUUCCUCGUCACUCAGCAGGGCAUCUCUGAGAGAGAUGCC, the self-cleavage was 0.13.

Consider UACGUAGGUGGUCUUCCCCUGAUAGUGCUAAGGGGGCCUGGAGGUUUGGACUGGGCAGAGCUCAUCACAGCGAGGCAGAGUGGCUGUGGCUAGACUGCCUCUCUGGAUUCCUCGUCACUCAGCAGGGCAUCUCUGAGGGAGAUGCC, for which the self-cleavage amounted to 0.13.

Take UACGUAGGUGGUCUUCCCCUGAUAGUGCUAAGGGGGCCUGGAGGUUUGGACUGGGCAGAGCCCAACACAGCGUGGCAAAGUGGCUGUGGCUAGACUGCCUCUCUGGAUUCCCCGUCACACAGCAGGGCAUCUCUGAGAGAGAUGCC: the self-cleavage turned out to be 0.

As to UACGUAGGUGGUCUUCCCCUGAUAGUGCUAAGGGGGCCUGGUAGUUUGGACUGGGCAGAGCCCAACACAGCGUGGCAAAGUGGCUGUGGCUAGACUGCCUCCCUGGAUUCCUCGUCACUCAGCAGGGCAUCUCUGAGAGAAAUGCC, the self-cleavage was found to be 0.14.

As for UACGUAGGUGGUCUUCCCCUGAUAGUGCUAAGGGGGCCUGGAAGUUUGGGCUGGGCAGAGCUCAACACAGCGUGGCAAAGUGGCUGUGGCUAGAUUGCCUCUCUGGAUUCCUCGUCACUCAGCAGGGCAUCUCUGAGAGAAAUGCC, the self-cleavage was 0.

As to UACGUAGGUGGUCUUCCCCUGAUAGUGCUAAGGGGGCCUGGAAGUUUGGACUGGGCGGAGCUCAACGCAGCGUGGCAAAGUGGCUGUGGCUAGACUGCCUCUCUGGAUUCCUCGUCACUCAGCAGGGCAUCUCUGAGAGAAAUGCC, the self-cleavage stood at 0.75.

Turning to UACGUAGGUGGUCUUCCCCUGAUAGUGCUAAGGGGGCCUGGUAGUUUGGACUGGGCAGAGCUCAACACAGCGUGGCAAAGUGGCUGUGGCUAGACUGCCUCUCUGGAUUCCUCGUCACUCAGCGGGGCAUCACUGAGAGAAAUGCC, the self-cleavage came to 0.72.

With UACGUAGGUGGUCUUCCCCUGAUAGUGCUAAGGGGGCCUGGAUGUUUGGACUGGGCGGAGCUCAACACAGCGUGGCAAAGUGGCUGUGGCUAGACUGCCUCUCUGGAUUCCUCGUCACUCAGCAGGGCAUCUCUGAGAGAAAUGCC, the self-cleavage was found to be 1.26.

Turning to UACGUAGGUGGUCUUCCCCUGAUAGUGCUAAGGGGGCCUGGGAGUUUGGACCGGGCAAAGCUCAACACAGCGUGGCAAAGUGGCUGUGGCUAGACUGCCUCUCUGGAUUCCUCGUCACUCAGCAGGGCAUCUCUGAGAGAAAUGCC, the self-cleavage was determined as 0.09.

On to UACGUAGGUGGUCUUCCCCUGAUAGUGCUAAGGGGGCCUGGUAGUUUGGACUGGGCAGAGCUCAACACAGCGUGGCAAAGUGGCUGUGGCUAGACUGCAUCUCUGGAUUCCUCGUCACUCUGCAGGGCAUCUCUGAGAGAAAUGCC, for which the self-cleavage worked out at 0.19.
